Test results: paper PMC4203352
Results are given in words; binding and its absence hold for the method and conditions named. Binding seen in cells or lysates may run through a third protein. Some entries that bind do so weakly or less than the wild type. Tags and fused reporters may be left off the sequences shown.

Amino acid sequences for entries named in this document (tags omitted).
UniProt Q8TBH0: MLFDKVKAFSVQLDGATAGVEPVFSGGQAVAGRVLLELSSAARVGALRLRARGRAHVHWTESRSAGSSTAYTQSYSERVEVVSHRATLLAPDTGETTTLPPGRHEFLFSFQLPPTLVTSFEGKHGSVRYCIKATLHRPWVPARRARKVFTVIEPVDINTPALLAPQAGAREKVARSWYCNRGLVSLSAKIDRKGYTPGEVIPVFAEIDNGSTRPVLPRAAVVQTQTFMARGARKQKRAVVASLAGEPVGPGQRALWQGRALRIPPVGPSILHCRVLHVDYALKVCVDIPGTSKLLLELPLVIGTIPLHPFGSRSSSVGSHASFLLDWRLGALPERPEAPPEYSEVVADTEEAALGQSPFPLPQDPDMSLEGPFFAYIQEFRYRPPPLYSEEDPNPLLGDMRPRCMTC

Assays:
Assay in all cases: pull-down; HEK293TN cells co-transfected with the indicated plasmids; lysis in 0.5% Triton X-100, 150 mM NaCl, 50 mM Tris, pH 7.8; Strep/FLAG-tagged Txnip (or Arrdc1-4) held on magnetic Streptactin beads; wash with 0.5% Triton X-100, 500 mM NaCl, 50 mM Tris, pH 7.8; eluates by SDS-PAGE and immunoblot
[1] = target: T1, Arrestin domain-containing protein 1 (ARRDC1), N-terminal tandem Strep/FLAG tag (UniProt Q8N5I2)
T1 sequence: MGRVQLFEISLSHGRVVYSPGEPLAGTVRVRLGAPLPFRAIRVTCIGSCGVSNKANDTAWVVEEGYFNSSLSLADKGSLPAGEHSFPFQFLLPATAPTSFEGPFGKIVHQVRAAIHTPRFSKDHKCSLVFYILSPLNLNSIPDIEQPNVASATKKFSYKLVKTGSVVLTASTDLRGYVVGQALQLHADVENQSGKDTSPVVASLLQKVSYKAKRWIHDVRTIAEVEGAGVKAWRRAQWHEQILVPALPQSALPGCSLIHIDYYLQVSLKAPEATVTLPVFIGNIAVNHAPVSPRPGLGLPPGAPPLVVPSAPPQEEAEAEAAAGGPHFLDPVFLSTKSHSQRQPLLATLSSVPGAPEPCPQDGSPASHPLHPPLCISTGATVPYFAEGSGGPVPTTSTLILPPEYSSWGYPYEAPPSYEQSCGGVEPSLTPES

[2] = target: T2, Arrestin domain-containing protein 4 (ARRDC4), N-terminal tandem Strep/FLAG tag (UniProt Q8NCT1)
T2 sequence: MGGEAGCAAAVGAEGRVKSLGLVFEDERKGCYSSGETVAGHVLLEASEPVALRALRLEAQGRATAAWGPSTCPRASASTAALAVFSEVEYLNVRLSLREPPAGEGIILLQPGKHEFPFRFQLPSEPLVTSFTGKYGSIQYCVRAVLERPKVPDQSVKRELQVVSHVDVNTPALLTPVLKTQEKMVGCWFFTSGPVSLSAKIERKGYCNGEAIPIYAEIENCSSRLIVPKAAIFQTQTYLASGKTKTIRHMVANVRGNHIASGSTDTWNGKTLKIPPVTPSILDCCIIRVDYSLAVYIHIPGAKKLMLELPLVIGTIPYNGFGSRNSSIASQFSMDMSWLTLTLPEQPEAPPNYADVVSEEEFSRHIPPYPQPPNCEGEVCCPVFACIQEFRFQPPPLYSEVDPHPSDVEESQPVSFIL

[3] = target: T3, Txnip C247S mutant, N-terminal tandem Strep/FLAG tag (UniProt Q9H3M7)
T3 sequence: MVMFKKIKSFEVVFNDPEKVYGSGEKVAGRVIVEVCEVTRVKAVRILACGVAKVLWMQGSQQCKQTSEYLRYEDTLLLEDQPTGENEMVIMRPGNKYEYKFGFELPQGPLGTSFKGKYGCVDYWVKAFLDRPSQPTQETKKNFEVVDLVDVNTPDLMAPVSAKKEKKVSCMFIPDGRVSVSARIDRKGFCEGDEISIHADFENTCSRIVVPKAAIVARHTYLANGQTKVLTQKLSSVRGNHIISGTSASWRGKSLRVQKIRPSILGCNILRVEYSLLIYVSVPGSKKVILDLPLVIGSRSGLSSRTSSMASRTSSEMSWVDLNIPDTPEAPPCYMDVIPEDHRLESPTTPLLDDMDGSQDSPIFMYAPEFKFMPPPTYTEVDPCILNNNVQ

[4] = target: T4, Thioredoxin-interacting protein (Txnip), N-terminal tandem Strep/FLAG tag (UniProt Q9H3M7)
T4 sequence: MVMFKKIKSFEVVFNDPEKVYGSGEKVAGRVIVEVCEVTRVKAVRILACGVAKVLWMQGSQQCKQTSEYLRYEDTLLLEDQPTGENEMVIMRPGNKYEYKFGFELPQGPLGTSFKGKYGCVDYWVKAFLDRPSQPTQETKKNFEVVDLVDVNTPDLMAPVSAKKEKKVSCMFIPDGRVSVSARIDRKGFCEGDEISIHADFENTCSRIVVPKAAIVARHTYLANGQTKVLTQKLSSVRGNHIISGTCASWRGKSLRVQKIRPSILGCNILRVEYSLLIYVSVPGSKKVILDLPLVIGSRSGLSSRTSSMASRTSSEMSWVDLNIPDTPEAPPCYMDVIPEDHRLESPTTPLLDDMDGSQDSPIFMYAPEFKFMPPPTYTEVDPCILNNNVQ

[5] = target: T5, Arrestin domain-containing protein 3 (ARRDC3), N-terminal tandem Strep/FLAG tag (UniProt Q96B67)
T5 sequence: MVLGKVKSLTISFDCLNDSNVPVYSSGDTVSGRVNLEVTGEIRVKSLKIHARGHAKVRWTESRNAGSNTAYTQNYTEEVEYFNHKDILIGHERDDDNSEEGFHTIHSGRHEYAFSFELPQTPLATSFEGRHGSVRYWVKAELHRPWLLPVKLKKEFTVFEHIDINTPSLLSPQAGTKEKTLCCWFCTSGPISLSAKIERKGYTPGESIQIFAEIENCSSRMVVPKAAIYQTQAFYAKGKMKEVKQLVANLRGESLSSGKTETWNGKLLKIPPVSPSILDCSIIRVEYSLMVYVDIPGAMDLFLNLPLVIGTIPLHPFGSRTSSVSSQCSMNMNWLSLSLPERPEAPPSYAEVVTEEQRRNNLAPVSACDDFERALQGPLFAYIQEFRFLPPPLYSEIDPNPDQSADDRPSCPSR

[6] = target: Arrestin domain-containing protein 2 (ARRDC2), N-terminal tandem Strep/FLAG tag (UniProt Q8TBH0)

B1: full-length PDIA6 (1-421), HA tag (enzyme, UniProt Q15084 20-440)
chain: LYSSSDDVIELTPSNFNREVIQSDSLWLVEFYAPWCGHCQRLTPEWKKAATALKDVVKVGAVDADKHHSLGGQYGVQGFPTIKIFGSNKNRPEDYQGGRTGEAIVDAALSALRQLVKDRLGGRSGGYSSGKQGRSDSSSKKDVIELTDDSFDKNVLDSEDVWMVEFYAPWCGHCKNLEPEWAAAASEVKEQTKGKVKLAAVDATVNQVLASRYGIRGFPTIKIFQKGESPVDYDGGRTRSDIVSRALDLFSDNAPPPELLEIINEDIAKRTCEEHQLCVVAVLPHILDTGAAGRNSYLEVLLKLADKYKKKMWGWLWTEAGAQSELETALGIGGFGYPAMAAINARKMKFALLKGSFSEQGINEFLRELSFGRGSTAPVGGGAFPTIVEREPWDGRDGELPVEDDIDLSDVELDDLGKDEL
binding [1]: no binding | binding [2]: no binding | binding [3]: no binding | binding [4]: binds | binding [5]: no binding | binding [6]: no binding
